Laboratory results from PubChem BioAssay AID1956 (SRMLSC, 2009).
About 10 (0.005%) of roughly 220,000 compounds were called active. Inconclusive results, whose numbers are uncertain, are shown with a selection of clear calls. No stated cut-off is given here; in the data, active means maximum fold increase above about 1.5; inconclusive means no clear call, values can overlap the other calls; inactive means below that; tested in PC3 cells.

Assay: compounds boosting herpes simplex virus growth – fold increase, host cell viability (AID 1956)
Settings: HSV replication augmentation in cells; at 25 µM unless noted

| Compound | maximum fold increase |
| --- | --- |
| Cc1c(O)c2c(=O)n(-c3ccccc3)c(-c3ccccc3)cc2oc1=O | inactive |
| Cn1cccc1Cc1nnc(SCC(=O)N2CCc3ccccc32)n1-c1ccc(F)cc1 | inconclusive |
| COc1ccc(-n2c(SCC(=O)Nc3sc4c(c3C#N)CCCC4)nnc2-c2ccccc2OC)cc1 | inconclusive |
| N=C1/C(=C\c2coc3ccc(O)cc3c2=O)C(=O)N=C2SC=CN12 | inconclusive |
| CCOc1ccc(C2C(C#N)=C(N)SC(N)=C2C#N)cc1OC | inconclusive |
| O=C(CCCCl)Oc1ccc2cc(-c3ccc4ccccc4n3)c(=O)oc2c1 | inconclusive |
| CCOC(=O)c1cnc2ccc(OCC)cc2c1NCc1ccccc1 | inactive |
| CCOC(=O)C(C(=O)OCC)C1CCS(=O)(=O)C1 (stereo unspecified) | inactive |
| O=C(NC(=S)Nc1ccc(Oc2ccc(Cl)cc2)cc1)c1ccccc1 | inconclusive |
| O=C1N=c2ccccc2=C1c1sc(=S)n(CC2CCCO2)c1O (stereo unspecified) | inconclusive |
| CN(C)S(=O)(=O)c1ccc(C(=O)Nc2cccc(S(=O)(=O)NC3=NCCC3)c2)cc1 | inconclusive |
| N#C/C(=C\c1cc([N+](=O)[O-])c(N2CCOCC2)cc1N1CCOCC1)c1nc2ccccc2[nH]1 | inconclusive |
| O=Cc1ccc(-c2ccc([N+](=O)[O-])cc2Cl)o1 | inactive |
| C=CCN1C(=O)c2cccc3c(Br)ccc(c23)C1=O | inconclusive |
| Cc1noc(/C=C/c2ccc(-c3ccccc3Cl)o2)c1[N+](=O)[O-] | inconclusive |
| O=C(CCOc1ccccc1F)N1CCN(c2ccccc2O)CC1 | inactive |
| CCOc1ccc(NC(=S)N(C)C)cc1 | inactive |
| N#Cc1c(N)n(-c2ccc(C(=O)O)cc2)c2nc3ccccc3nc12 | inconclusive |

| Compound | maximum fold increase |
| --- | --- |
| CCOC(=O)CC(=O)CSc1nc(-c2ccccc2)cc(-c2ccc(Cl)cc2)c1C#N | inconclusive |
| COc1ccc(C2=CC(c3ccco3)n3ncnc3N2)cc1 (stereo unspecified) | inconclusive |
| O=C(/C=C/Nc1ccccc1Oc1ccccc1)c1ccco1 | inactive |
| CN1C(=O)N(C)C2(c3ccccc3)NC(=O)NC12c1ccccc1 (stereo unspecified) | inactive |
| COc1cc(/C=C(\C#N)C(=O)N2CCc3ccccc32)ccc1O | inconclusive |
| C/C(=N/Nc1nc(-c2ccc(Cl)cc2)cs1)c1cccs1 | inconclusive |
| COc1ccc(-c2[nH]ncc2CN2CCC(C(=O)c3ccc(F)cc3)CC2)cc1 | inactive |
| Cc1ccc(Nc2nc(Cl)c(C=O)s2)cc1 | inconclusive |
| Cc1nonc1NC(=O)CSc1nc2ccccc2cc1C#N | inconclusive |
| O=C(O)c1ccc2c(c1)C(=O)N(c1ccccc1-c1ccccc1)C2=O | inactive |
| COc1cc(/C=C/c2nc3ccccc3s2)cc(OC)c1O | inconclusive |
| C=CCn1c(SCC(=O)Nc2sccc2C#N)nc2sc(C)c(C)c2c1=O | inconclusive |
| O=S(=O)(c1ccc(F)cc1)N1CN(Cc2ccco2)c2nc3ccccc3nc21 | inconclusive |
| OCC[n+]1ccc(/C=C/c2c[nH]c3ccccc23)cc1 | inconclusive |
| Cc1ccc(/C=C/C(=O)O)cc1S(=O)(=O)NCCCO | inactive |
| CC(C)Cn1c(/C=C/c2ccco2)nc2ccccc21 | inconclusive |
| CN1/C(=C\C=C2\N=C(c3ccc(F)cc3)OC2=O)C(C)(C)c2ccccc21 | inconclusive |
| CCCC1=C(C(=O)OCC)C(/C=C/c2ccccc2)n2ncnc2N1 (stereo unspecified) | inactive |
